Experimental data published in PubChem BioAssay (NCI).
Values joined by “and” are separate entries in the source; they are usually repeats but may differ in a detail not shown here. Identical values can stand only once.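 A five-concentration, 48-hour dose response in 96-well plates underlies each endpoint, interpolated linearly between surrounding concentrations. GI50: concentration for 50% inhibition of growth. At the TGI there is no net growth.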

These molecules were tested on NCI-H322M lung (assay: NCI anticancer screen, dose series, 48 h).
With `CN1CCN(C(=O)c2cn(Cc3cncn3Cc3ccc4c(c3)OCO4)cc2-c2cccc3ccccc23)CC1` the TGI was > 100 µM. `Clc1ccc2c(NCCCCCCNc3ccnc4cc(Cl)ccc34)ccnc2c1` showed a TGI of 16.1 µM. In the case of `COc1ccc(-n2c(=S)sc3c(Cl)nc(C)nc32)c(OC)c1`, the GI50 is reported as 2.51 µM and the TGI is reported as 6.47 µM. For `COC(=N)C1(C#N)NC(c2ccsc2)C(C#N)(C#N)NC1c1ccsc1` (centres undefined), the TGI was > 100 µM. Molecule `O=S(=O)(NC1=NCCN1C(=S)SN1CCn2c1nsc2=S)c1ccc(Cl)cc1` has a GI50 of 28.7 µM and a TGI of 51.1 µM. With `CCOc1ccc(NC(=O)/C(CC(=O)c2c[n+](=O)c3ccccc3n2[O-])=N\OCCCc2ccccc2)cc1` the TGI was > 100 µM. Molecule `CC1=NN(C(=O)CC(=O)Nc2cccc(C)c2)C(=O)C1N=Nc1ccc(S(=O)(=O)CCOS(=O)(=O)O)cc1` (centres undefined) has a TGI of 36.2 µM. In the case of `Cc1ccc(/C(=N/Nc2ccc([N+](=O)[O-])cc2)Sc2cc(Cl)c(C)cc2S(N)(=O)=O)cc1`, the GI50 is reported as 1.79 µM and the TGI is reported as 4.48 µM. Molecule `CC1=C(C)C(=O)C(C2=CC(=O)c3ccccc3C2=O)=C(C2=CC(=O)c3ccccc3C2=O)C1=O` has a TGI of 46.2 µM. `CC(=O)[CH-]C(C)=O.CC(=O)[CH-]C(C)=O.[O-]c1ccccc1.[O-]c1ccccc1.[Ti+4]` was tested, and the GI50 was > 100 µM and the TGI was > 100 µM. For `Cn1/c(=N\N=C2\C=C3CCCCC3(C)CC2)sc2ccccc21` (centres undefined), the TGI was > 100 µM. For `Cc1nc2c(Br)cc(Br)cc2c(=O)n1-c1ccccc1NC1OC(CO)C(O)C(O)C1O` (centres undefined), the TGI was > 100 µM. For `CC(C)(C)C(=O)Nc1c(C=O)ccc2[nH]cnc12`, the TGI was > 100 µM. With `CN1CCN(C2=NC(=O)/C(=C\c3ccc(N(C)C)cc3)S2)CC1` the GI50 was > 100 µM and the TGI was > 100 µM. For `CC(=O)N1[C@H](C(=O)O)CS[C@H]1c1ccc(F)cc1`, the TGI was > 100 µM. In the case of `Cc1n[nH]c2ccccc2c1=O`, the TGI is reported as > 100 µM. In the case of `CC1CCC2C(C)C(=O)OC2C2(C)C(=O)C=CC12` (centres undefined), the TGI is reported as > 10 µM. Work on `CC(C)(CO[C@H]1C[C@H]2CC[C@@]1(C)C2(C)C)[N+](=O)[O-]` yielded a TGI of 29.6 µM. In the case of `CCC1(c2ccc(N3C(=O)c4cccc5cc([N+](=O)[O-])cc(c45)C3=O)cc2)CCC(=O)NC1=O` (centres undefined), the TGI is reported as > 100 µM. `O=C(c1ccccc1)C1N=NN(Cc2ccccc2[N+](=O)[O-])C1C(=O)c1ccccc1` (centres undefined) was tested, and the TGI was > 100 µM. `O=C1[C@@H]2[C@@H](CN3CN(c4ccccc4)N=C(c4ccccc4)[C@@]23c2ccccc2)C(=O)N1c1ccccc1` showed a TGI of 32.5 µM. With `CCC[CH2][Sn-]([CH2]CCC)([CH2]CCC)[O]C(=O)C(C)C` the GI50 was 0.133 µM and the TGI was 0.264 µM. Molecule `Cn1c(COC(=O)NCCn2ccnc2)nc2c(N3CCOCC3)nc(-c3ccccc3)nc21` has a GI50 of 1.51 µM and a TGI of 2.92 µM. Molecule `CC(=O)NC1C(OCc2ccccc2)OC(CO)C(O)C1OC(C)C(=O)N[C@@H](C)C(=O)N[C@H](CCC(=O)NCCNCCNc1c2ccccc2nc2cccc([N+](=O)[O-])c12)C(N)=O` (some centres undefined) has a TGI of 0.623 µM. `CCN(CC)C(=S)SC(C(=O)Nc1nnc(-c2ccc(Cl)cc2)o1)c1ccccc1` (centres undefined) was tested, and the TGI was 94.2 µM. `Oc1ccc(Cl)cc1C=Nc1cnc2ccccc2c1` was tested, and the TGI was > 90.6 µM. For `Cc1cc(Cl)ccc1NC(=O)CCCC(=O)C1C/C(=N/O)CC/C1=N\O` (centres undefined), the TGI was > 100 µM. For `COc1ccc2c(c1)C(=O)c1c-2c(OCCCN(C)C)nc2cc(Br)ccc12`, the GI50 was 3.01 µM and the TGI was 15.5 µM. With `C[C@]12CC[C@H]3[C@@H](CC=C4C[C@@H](N5CCCC5)CC[C@@]43C)[C@@H]1C[C@H](N1CCCCC1)[C@@H]2O` the TGI was > 100 µM. In the case of `Oc1ccc(C(O)C2CCCCN2)cc1O` (centres undefined), the TGI is reported as > 100 µM. With `COc1ccc(-n2cc(-c3ccc(OC)c(OC)c3)[nH]c2=O)cc1` the GI50 was > 100 µM and the TGI was > 100 µM. For `COC(=O)C1=C(CCCCO[Si](C)(C)C(C)(C)C)NC(=O)N2[C@H](CCOCc3ccccc3)CC[C@@H]12`, the TGI was > 100 µM. In the case of `CCCCNC(c1ccc(Cl)cc1)C(O)c1ccc(Cl)cc1` (centres undefined), the GI50 is reported as 1.75 µM and the TGI is reported as 5.61 µM. For `O=C1c2cc3c(cc2-c2c1c1cc(F)c(F)cc1c(=O)n2CCCn1ccnc1)OCO3`, the GI50 was 0.0977 µM and the TGI was > 100 µM. With `C[C@@]1(F)[C@H](O)[C@@H](CO)O[C@H]1n1ccc(=O)[nH]c1=O` the GI50 was > 100 µM and the TGI was > 100 µM. For `CC(C)(C)C1CCC2c3c([nH]c4ccccc34)C3C(=O)N(c4ccc([N+](=O)[O-])cc4)C(=O)C3C2C1` (centres undefined), the TGI was > 100 µM. For `CCCCCCCC(=O)OCC/C=C/C1OC1C1OC(=O)/C=C\C=C\C(=O)N(C(C)=O)C(=O)/C=C(/C)CCC2OC2C1OC(=O)NC(C)=O` (centres undefined), the GI50 was 9.35 µM and the TGI was > 25 µM. In the case of `COc1ccc(-c2ccc(C(=O)C=P(c3ccccc3)(c3ccccc3)c3ccccc3)cc2)cc1`, the TGI is reported as 44.9 µM. `CCN(CC)C(=S)SSC(C)C` was tested, and the GI50 was 34.9 µM and the TGI was > 100 µM. `NCCO/C=C/C(N)C(=O)O` (centres undefined) was tested, and the TGI was > 100 µM. `O=C(Nc1ccc(Cl)cc1C(F)(F)F)C(=O)Nn1c(=S)[nH]c2ccccc2c1=O` was tested, and the TGI was > 100 µM. `COC(=O)C1OC(O[C@H]2CC[C@]3(C)[C@H]4CC=C5[C@@H]6CC(C)(C)CC[C@]6(C(=O)OC6OCC(O)C(O)C6OC6OC(C)C(OC7OCC(O)C(O)C7O)C(O)C6O)[C@H](O)C[C@@]5(C)[C@]4(C)CC[C@H]3C2(C)C)C(O)C(O)C1O` (some centres undefined) was tested, and the TGI was 6.8 µM and 8.09 µM. For `CCOC(=O)Nc1ccc2nc(-c3cscn3)[nH]c2c1`, the GI50 was 49.3 µM and the TGI was > 100 µM. `COC(=O)C1CC(c2ccc(OC)c(OC)c2)OC1=O` (mixture of isomers) was tested, and the TGI was > 100 µM.
